# The full ranking holds about 81,000 sequences; the median of “one-hybrid fitness for binding NBS DNA” is about -0.1, and the highest 2% start at about 0.36. Some of the results follow.
# B1: Caulobacter ParB omega fusion; a variant is named by its letters at X, in order, B8GW30 (parent)
# chain: MESVVVGEPGMSEGRRGLGRGLSALLGEVDAAPAQAPGEQLGGSREAPIEILQRNPDQPRRTFREEDLEDLSNSIREKGVLQPILVRPSPDTAGEYQIVAGERAWRAAQRAGLKTVPIMVRELDDLAVLEIGIIENVQRADLNVLEEALSYKVLMEKFERTQENIAQTIGKSXSHVANXMRLLXLPDEVQSYLVSGELTAXHARAIAAAADPVALAKQIIEGGLSVRETEALARKAPNLSAGKSKGGRPPRVKDTDTQALESDLSSVLGLDVSIDHRGSTGTLTITYATLEQLDDLCNRLTRGI
# Variants of: B1
# Assay: one-hybrid fitness for binding NBS DNA (the Noc-binding site; scaled: cognate 1, non-cognate 0); higher = stronger binding
# Conditions: with NBS DNA site
# Method in brief: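 On M9-minus-histidine containing 0.1 mM IPTG and 5 mM 3-AT, E. coli USO cells with a HIS3 reporter, site 19 bp from the promoter, grew 48 hours at 37°C to select Caulobacter ParB libraries randomised at four specificity codons. Plasmids from before and after were Illumina-sequenced, with three replicate libraries pooled and variants under 10 reads left out. Fitness is the log change in variant-to-wild-type read ratio, rescaled against cognate and non-cognate.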
row,Variant,one-hybrid fitness for binding NBS DNA
1,KKTP,≤ 0.2
2,YWTD,≤ 0.2
3,TWHG,≤ 0.2
4,QMEA,≤ 0.2
5,SRKP,≤ 0.2
6,PLTQ,≤ 0.2
7,RTAL,≤ 0.2
8,PNHG,≤ 0.2
9,ERQE,≤ 0.2
10,PLNR,≤ 0.2
11,ENQC,≤ 0.2
12,PMPK,≤ 0.2
13,THHD,≤ 0.2
14,DYLS,≤ 0.2
15,APGG,≤ 0.2
16,PTFP,≤ 0.2
17,SNHV,≤ 0.2
18,DRFS,≤ 0.2
19,QRTC,0.395
20,FPDR,≤ 0.2
21,IRKP,≤ 0.2
22,IYLL,≤ 0.2
23,KKKY,≤ 0.2
24,KIMS,≤ 0.2
25,VQHM,≤ 0.2
26,SRKM,≤ 0.2

row,Variant,one-hybrid fitness for binding NBS DNA
1,SRLA,≤ 0.2
2,YCES,≤ 0.2
3,VRNP,≤ 0.2
4,TRNY,≤ 0.2
5,SQDT,≤ 0.2
6,CLTV,≤ 0.2
7,QITN,≤ 0.2
8,SMAV,≤ 0.2
9,HRVT,≤ 0.2
10,PFYG,≤ 0.2
11,RLRA,0.295
12,QAEE,≤ 0.2
13,INSY,≤ 0.2
14,RNFW,≤ 0.2
15,ILYL,≤ 0.2
16,SSLC,≤ 0.2
17,RAWC,≤ 0.2
18,NKLT,≤ 0.2
19,ARCS,≤ 0.2
20,YPEC,≤ 0.2
21,PNVM,≤ 0.2
22,VLFC,≤ 0.2
23,RTAA,0.245
24,TCNI,≤ 0.2
25,ATHD,≤ 0.2
26,QTEY,≤ 0.2

row,Variant,one-hybrid fitness for binding NBS DNA
1,RNTG,≤ 0.2
2,EFTN,0.392
3,QCVG,≤ 0.2
4,NNTI,≤ 0.2
5,HRKI,≤ 0.2
6,RSNM,≤ 0.2
7,EDPT,≤ 0.2
8,ANAE,≤ 0.2
9,ALKI,≤ 0.2
10,QFQR,0.36
11,QREQ,≤ 0.2
12,RVER,≤ 0.2
13,HLYW,≤ 0.2
14,WKAR,≤ 0.2
15,NSFI,≤ 0.2
16,LTTM,≤ 0.2
17,QGRW,≤ 0.2
18,CTST,≤ 0.2
19,PTDY,≤ 0.2
20,CRRW,≤ 0.2
21,PPRF,≤ 0.2
22,MWLI,≤ 0.2
23,QKQN,≤ 0.2
24,SMPT,≤ 0.2
25,RLCQ,≤ 0.2
26,WRSL,≤ 0.2

row,Variant,one-hybrid fitness for binding NBS DNA
1,YRDS,≤ 0.2
2,HLIK,≤ 0.2
3,SRID,≤ 0.2
4,PYTT,≤ 0.2
5,WDPD,≤ 0.2
6,YWQG,≤ 0.2
7,GMTL,≤ 0.2
8,TMER,≤ 0.2
9,SPTK,≤ 0.2
10,VLHS,≤ 0.2
11,LRRM,≤ 0.2
12,KFHF,≤ 0.2
13,MCRR,0.236
14,WVGC,≤ 0.2
15,THMV,≤ 0.2
16,CLLC,≤ 0.2
17,NDMS,≤ 0.2
18,ENAG,≤ 0.2
19,RDII,≤ 0.2
20,TTMS,≤ 0.2
21,RGHQ,≤ 0.2
22,LPGC,≤ 0.2
23,QVNG,≤ 0.2
24,KHLP,≤ 0.2
25,HRIV,≤ 0.2
26,KQHR,≤ 0.2

row,Variant,one-hybrid fitness for binding NBS DNA
1,VQFR,≤ 0.2
2,IVPR,≤ 0.2
3,PNTN,≤ 0.2
4,LLYM,≤ 0.2
5,HGES,≤ 0.2
6,PWVL,≤ 0.2
7,VSIT,≤ 0.2
8,WIDS,≤ 0.2
9,QDLN,≤ 0.2
10,FFRT,≤ 0.2
11,CQVS,≤ 0.2
12,RNWV,≤ 0.2
13,GHLT,≤ 0.2
14,DQHT,≤ 0.2
15,PLGA,≤ 0.2
16,RGAK,≤ 0.2
17,ARGM,≤ 0.2
18,IRNA,≤ 0.2
19,GGEF,≤ 0.2
20,YKNL,≤ 0.2
21,KAWP,≤ 0.2
22,PEPW,≤ 0.2
23,YCSL,≤ 0.2
24,HYMI,≤ 0.2
25,QQTS,0.433
26,AKLM,≤ 0.2

row,Variant,one-hybrid fitness for binding NBS DNA
1,FRCV,≤ 0.2
2,MMKT,≤ 0.2
3,PHFM,≤ 0.2
4,QRQL,0.255
5,HSMT,≤ 0.2
6,ERKM,≤ 0.2
7,CASA,≤ 0.2
8,VWGR,≤ 0.2
9,FNGT,≤ 0.2
10,TNQT,≤ 0.2
11,GIMS,≤ 0.2
12,FHTT,≤ 0.2
13,QDLC,≤ 0.2
14,YSGA,≤ 0.2
15,INPV,≤ 0.2
16,SAAS,≤ 0.2
17,CPPL,≤ 0.2
18,PFKG,≤ 0.2
19,SVQN,≤ 0.2
20,DPDF,≤ 0.2
21,LQYY,≤ 0.2
22,EATM,≤ 0.2
23,ELMT,≤ 0.2

# Reference: a collection of fitness landscapes (doi:10.1016/j.celrep.2020.107928)
